Measurements: the supplement of paper PMC10126150
Values marked as one replicate rest on one cluster of the flow cell; about a third of the high ones do not repeat.
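Further: ATP exposure 15 min at 22 °C before imaging.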

What follows are sequences tested on ATP (assay: switch fluorescence ratio, 500 uM ATP over buffer (Cy3 cluster intensity, sum of 5 cycles each) (fold (ratio)); higher = stronger signal-on switching upon ATP binding; sequences stand for … in TCGTCGGCAGCGTCAGATGTGTATAAGAGACAGTTTTTTTTTTTTTTTTTTTTTTTTT…TC). Details: aptamer strand: ATP DNA aptamer (quencher-CACCTGGGGGAGTATTGCGGAGGAAGG + anchor), 100 nM annealed; ATP concentration: 500 uM; one replicate.
Outline: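 Values give the fluorescence ratio for each switch-domain sequence, averaged from per-cluster ratios of summed target-cycle to summed buffer-cycle Cy3 intensity. The Cy3-labelled switching-strand clusters sat on a modified Illumina MiSeq flow-cell, were annealed to 100 nM quencher-labelled ATP aptamer, and were imaged in selection buffer, then after 15 min with 500 uM ATP at 22 °C. Five cycles ran with NaOH stripping and re-annealing between them, and clusters outside 100-1000 RFU were excluded.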
In the case of TTGAATAAAT, the switch fluorescence ratio was 1.02. With TTGAATACGC the switch fluorescence ratio was 1.02. TTGAATCCTG gave a switch fluorescence ratio of 1.02. In the case of TTGACAGGTG, the switch fluorescence ratio was 1.29. Work on TTGACTGCAT yielded a switch fluorescence ratio of 1.2. Sequence TTGACTGTTG has a switch fluorescence ratio of 1.02. Sequence TTGACTTCCA has a switch fluorescence ratio of 1.15. Sequence TTGAGAGCCG has a switch fluorescence ratio of 1.03. TTGAGATAAA was tested, and the switch fluorescence ratio was 1.07. Work on TTGAGCTTGC yielded a switch fluorescence ratio of 1.06. TTGAGTAGAT gave a switch fluorescence ratio of 0.984. For TTGAGTAGCT, the switch fluorescence ratio was 1.01. For TTGAGTGCAG, the switch fluorescence ratio was 1. TTGATACCCT gave a switch fluorescence ratio of 1.03. Work on TTGATAGTTA yielded a switch fluorescence ratio of 1.02. TTGATCATTC was tested, and the switch fluorescence ratio was 0.966. Work on TTGATCGATA yielded a switch fluorescence ratio of 1.02. In the case of TTGATGAGGC, the switch fluorescence ratio was 1.05. In the case of TTGATGGAAT, the switch fluorescence ratio was 1.24. TTGATGGCCC gave a switch fluorescence ratio of 0.95. In the case of TTGATTGTAT, the switch fluorescence ratio was 0.995. TTGCAAGTTC was tested, and the switch fluorescence ratio was 1.15. TTGCAATCTT showed a switch fluorescence ratio of 1.11. Work on TTGCAATGTT yielded a switch fluorescence ratio of 1.08. TTGCAGCCTA showed a switch fluorescence ratio of 1.54. Work on TTGCAGGTTG yielded a switch fluorescence ratio of 1.01. With TTGCCAAAAG the switch fluorescence ratio was 1.06. In the case of TTGCCCCAT, the switch fluorescence ratio was 1.03. With TTGCCCTTTG the switch fluorescence ratio was 0.999. TTGCCGCCCA was tested, and the switch fluorescence ratio was 1.03. Work on TTGCCTCGC yielded a switch fluorescence ratio of 0.995. TTGCGAACGC gave a switch fluorescence ratio of 1.02. Sequence TTGCGACCCT has a switch fluorescence ratio of 1.02. In the case of TTGCGAGTGG, the switch fluorescence ratio was 1.01. In the case of TTGCGGTGAT, the switch fluorescence ratio was 0.991. In the case of TTGCGTCTCA, the switch fluorescence ratio was 1.02. TTGCGTTC was tested, and the switch fluorescence ratio was 1.04. TTGCTAATGT was tested, and the switch fluorescence ratio was 0.987. TTGCTAATTG showed a switch fluorescence ratio of 0.981. Work on TTGCTAGTTT yielded a switch fluorescence ratio of 0.966. TTGCTCCCTC gave a switch fluorescence ratio of 1.23. In the case of TTGCTCCGGA, the switch fluorescence ratio was 1.75. TTGCTCGGGG was tested, and the switch fluorescence ratio was 1. TTGCTTCGTA was tested, and the switch fluorescence ratio was 0.95. In the case of TTGGAAAGTA, the switch fluorescence ratio was 0.975. With TTGGAACGCA the switch fluorescence ratio was 1.13. Sequence TTGGAACGCT has a switch fluorescence ratio of 1. In the case of TTGGAATAAC, the switch fluorescence ratio was 1.05. Sequence TTGGACAACT has a switch fluorescence ratio of 1.14. With TTGGACGATA the switch fluorescence ratio was 1.1. For TTGGCAGGT, the switch fluorescence ratio was 1.03. With TTGGCCCGTC the switch fluorescence ratio was 0.992. Work on TTGGCCGATT yielded a switch fluorescence ratio of 1.02. In the case of TTGGCGATCT, the switch fluorescence ratio was 1.04. TTGGCGGTCT was tested, and the switch fluorescence ratio was 1.04. TTGGCTACTA gave a switch fluorescence ratio of 0.97. With TTGGCTGGCG the switch fluorescence ratio was 0.981. In the case of TTGGGAGCTA, the switch fluorescence ratio was 1.01. For TTGGGCA, the switch fluorescence ratio was 0.995. Sequence TTGGGCGATC has a switch fluorescence ratio of 1.89. Work on TTGGGCTGAC yielded a switch fluorescence ratio of 1.32. TTGGGCTTTA showed a switch fluorescence ratio of 1.04. TTGGGGGAC was tested, and the switch fluorescence ratio was 1.18. TTGGGGGCTG was tested, and the switch fluorescence ratio was 0.953. TTGGGGGTAC was tested, and the switch fluorescence ratio was 1.09. Sequence TTGGGGTCGC has a switch fluorescence ratio of 0.965. TTGGGTGTGA showed a switch fluorescence ratio of 1.1. In the case of TTGGTACTC, the switch fluorescence ratio was 1.11. With TTGGTAGTGA the switch fluorescence ratio was 1.01. TTGGTATCAC was tested, and the switch fluorescence ratio was 1.01. For TTGGTCACTG, the switch fluorescence ratio was 0.988. TTGGTCGA showed a switch fluorescence ratio of 0.989. Work on TTGGTGATTT yielded a switch fluorescence ratio of 0.934. TTGGTGCATA showed a switch fluorescence ratio of 1.01. TTGGTGCTTT gave a switch fluorescence ratio of 0.973. Sequence TTGGTGTAAC has a switch fluorescence ratio of 1.05. TTGGTGTGAA gave a switch fluorescence ratio of 1.05. In the case of TTGGTGTGGA, the switch fluorescence ratio was 1.03. In the case of TTGGTTAAGG, the switch fluorescence ratio was 1.03. Work on TTGGTTCTTA yielded a switch fluorescence ratio of 0.943. With TTGGTTTAAC the switch fluorescence ratio was 0.994. With TTGGTTTTAC the switch fluorescence ratio was 1.24. TTGTAATGCT showed a switch fluorescence ratio of 1.22. TTGTACCATG gave a switch fluorescence ratio of 1.01. TTGTACTCG was tested, and the switch fluorescence ratio was 0.969. For TTGTACTGGT, the switch fluorescence ratio was 1.02. Sequence TTGTAGCTGC has a switch fluorescence ratio of 1.16. With TTGTAGTTTA the switch fluorescence ratio was 1.06. With TTGTATGCAT the switch fluorescence ratio was 0.95. For TTGTATGGAG, the switch fluorescence ratio was 0.962. TTGTCAAATC gave a switch fluorescence ratio of 1.03. For TTGTCACAG, the switch fluorescence ratio was 0.976. TTGTCACGGA was tested, and the switch fluorescence ratio was 1. Work on TTGTCAGGCA yielded a switch fluorescence ratio of 1.04. Work on TTGTCCTGCA yielded a switch fluorescence ratio of 1.04. In the case of TTGTCCTTGT, the switch fluorescence ratio was 1.02. For TTGTCGGAG, the switch fluorescence ratio was 0.918. Sequence TTGTCTCGGG has a switch fluorescence ratio of 1.02. In the case of TTGTCTTGCT, the switch fluorescence ratio was 0.962. TTGTGAAAA was tested, and the switch fluorescence ratio was 1.09. For TTGTGATATG, the switch fluorescence ratio was 0.997. Work on TTGTGCCGAG yielded a switch fluorescence ratio of 1.01. With TTGTGCTG the switch fluorescence ratio was 1.03. TTGTGCTGAA showed a switch fluorescence ratio of 0.988. With TTGTGGACGT the switch fluorescence ratio was 1. Sequence TTGTGTTTCC has a switch fluorescence ratio of 0.987. TTGTTAGACA was tested, and the switch fluorescence ratio was 1.02. TTGTTAGTC showed a switch fluorescence ratio of 1. For TTGTTATAAG, the switch fluorescence ratio was 0.963. TTGTTATCGC showed a switch fluorescence ratio of 1.05. Work on TTGTTCACGT yielded a switch fluorescence ratio of 0.966. In the case of TTGTTCGGAT, the switch fluorescence ratio was 0.971. With TTGTTGACCT the switch fluorescence ratio was 1.04. Work on TTGTTGCACG yielded a switch fluorescence ratio of 0.981. TTGTTGGACG showed a switch fluorescence ratio of 0.969. TTGTTGTTA was tested, and the switch fluorescence ratio was 0.957. TTGTTTAGAA showed a switch fluorescence ratio of 0.973. With TTGTTTGCG the switch fluorescence ratio was 1.01. Work on TTGTTTGGG yielded a switch fluorescence ratio of 0.97. TTTAAAAAA gave a switch fluorescence ratio of 1.05. For TTTAAAACT, the switch fluorescence ratio was 0.941. Work on TTTAAACTTG yielded a switch fluorescence ratio of 1.04. TTTAACGG was tested, and the switch fluorescence ratio was 1.02. Work on TTTAAGAACC yielded a switch fluorescence ratio of 1.01. With TTTAAGGGAG the switch fluorescence ratio was 0.983. Work on TTTAATCTTA yielded a switch fluorescence ratio of 1.02. TTTACATGTA was tested, and the switch fluorescence ratio was 0.99. For TTTACCCTGC, the switch fluorescence ratio was 1.07. TTTACCTTTC gave a switch fluorescence ratio of 2.02. For TTTACGAGG, the switch fluorescence ratio was 1. TTTACGCCTC showed a switch fluorescence ratio of 1.1. TTTACGGACT showed a switch fluorescence ratio of 1.22. For TTTACGTAAC, the switch fluorescence ratio was 2.14. In the case of TTTACGTACA, the switch fluorescence ratio was 1.67. With TTTACGTACT the switch fluorescence ratio was 1.88. TTTACGTTAG showed a switch fluorescence ratio of 1.06. In the case of TTTACTCGG, the switch fluorescence ratio was 1.02. In the case of TTTACTGG, the switch fluorescence ratio was 1.03. Sequence TTTAGAAAGA has a switch fluorescence ratio of 1.02. In the case of TTTAGACACA, the switch fluorescence ratio was 1.02. Sequence TTTAGCAACG has a switch fluorescence ratio of 1.06. TTTAGCCCGC was tested, and the switch fluorescence ratio was 1.05. Work on TTTAGGAG yielded a switch fluorescence ratio of 0.966. In the case of TTTAGGAGTA, the switch fluorescence ratio was 0.959. TTTAGGCCGC gave a switch fluorescence ratio of 1.03. Work on TTTAGGTG yielded a switch fluorescence ratio of 1.19. With TTTAGGTGTC the switch fluorescence ratio was 1.04. With TTTAGTACA the switch fluorescence ratio was 1.01. TTTAGTCATA showed a switch fluorescence ratio of 1.02. TTTATAAGTG was tested, and the switch fluorescence ratio was 1.06. TTTATACTTG gave a switch fluorescence ratio of 0.988. Work on TTTATAGATA yielded a switch fluorescence ratio of 0.989. In the case of TTTATCAAT, the switch fluorescence ratio was 1.01. TTTATCCGTG was tested, and the switch fluorescence ratio was 1.02.
